Measured values published in PubChem BioAssay AID588453 (National Center for Advancing Translational Sciences (NCATS), 2011).
Several values for one entry are separate records, joined by “and”; a condition that tells them apart may be missing. Equal values may be shown once. In all, about 390,000 compounds went through this assay and about 4,000 (1%) were called active. This list was built around the results that the source calls inconclusive (neither active nor inactive); the mix of calls is not that of the screen. The call rests on the fitted dose curve; in most records, active means well fitted inhibition curve with a large enough effect; inconclusive means small, poorly fitted or top-dose-only effect; inactive means no such curve, though single readings can be large or run the other way. A potency beside an inconclusive call is a rough fit, not a confirmed value. Where a structure was tested more than once in an assay, its records may differ in their call.
Further: nearly all actives have a fitted effect of over 65% in size.
Potency means the concentration at half of the fitted maximal effect; tags describe the fitted curve by direction and shape.

The compounds below were run against Thioredoxin reductase 1, cytoplasmic (Rattus norvegicus) (UniProt O89049) (assay: qHTS Assay for Inhibitors of Mammalian Selenoprotein Thioredoxin Reductase 1 (TrxR1): qHTS). Conditions: recombinant rTrxR1, NADPH fluorescence consumption, selenite substrate; series mostly up to 114 µM.
Sequence of UniProt O89049 (O89049 whole entry, looked up): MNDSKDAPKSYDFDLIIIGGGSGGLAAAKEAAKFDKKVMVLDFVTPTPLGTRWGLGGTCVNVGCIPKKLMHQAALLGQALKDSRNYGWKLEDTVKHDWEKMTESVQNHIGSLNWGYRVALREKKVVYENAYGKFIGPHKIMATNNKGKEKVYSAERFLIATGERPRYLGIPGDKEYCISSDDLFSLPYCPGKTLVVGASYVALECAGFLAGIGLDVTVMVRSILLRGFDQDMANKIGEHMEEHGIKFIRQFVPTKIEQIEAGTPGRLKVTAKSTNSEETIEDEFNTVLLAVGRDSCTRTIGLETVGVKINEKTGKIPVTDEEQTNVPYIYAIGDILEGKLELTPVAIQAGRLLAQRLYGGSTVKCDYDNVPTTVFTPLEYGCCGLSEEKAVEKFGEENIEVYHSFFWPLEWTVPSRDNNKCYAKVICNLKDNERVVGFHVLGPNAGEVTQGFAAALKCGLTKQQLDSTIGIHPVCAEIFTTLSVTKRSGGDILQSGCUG
Summary of the method: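 Rat TrxR1 (90 nM in the dispensed reagent) was pre-reduced with 400 uM NADPH for 5 min at room temperature, then incubated with compound for 15 min. After 400 uM selenite was added, NADPH fluorescence (Ex 340/Em 450 nm) was followed for 8 min.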
With O=S(=O)(c1cccc(-c2cn3cccnc3n2)c1)N1CCCCCC1 the Potency was inconclusive: 70.8 µM [inhibitor, single point].
Cc1cc(NC(=O)CC(C)C)c(=O)n(Cc2ccccc2F)c1 was tested, and the Potency was “inactive”.
With C/C(=N\NC(=O)c1ccc(Cl)c(Cl)c1)c1ccccn1 the Potency was “inactive”.
In the case of NCCCS(=O)(=O)O, the Potency is reported as “inactive and active: 10.6 µM”.
For Cc1ccccc1CNCCSc1nnnn1-c1ccccc1, the Potency was “inactive”.
O=c1cc(/C=C/c2ccc([N+](=O)[O-])cc2)c2ccccc2[nH]1 was tested, and the Potency was “inactive”.
O=C(CCC1N=C2c3ccccc3N=C(SCc3ccc(F)cc3)N2C1=O)NCc1ccco1 (centres undefined) was tested, and the Potency was inconclusive: 28.2 µM [inhibitor, partial curve, poor fit].
In the case of O=C(OCc1ccc([N+](=O)[O-])cc1Cl)c1cnccn1, the Potency is reported as active: 22.4 µM.
Cc1ccc2nc3c(cc(C#N)c(=O)n3-c3nccs3)c(=O)n2c1 was tested, and the Potency was inconclusive: 63.1 µM [inhibitor, single point].
With COc1ccccc1N(C)S(=O)(=O)c1ccc(C(=O)Nc2cccc(Br)c2)cc1 the Potency was “inactive”.
Cc1cccc(NC(=O)/C(=C\c2ccco2)NC(=O)c2cccs2)c1 was tested, and the Potency was active: 39.8 µM.
For Cc1ccccc1NC(=S)N(Cc1ccccn1)Cc1ccccc1Cl, the Potency was “inactive”.
In the case of CN(CCNC(=O)Cn1c(=O)sc2ccccc21)Cc1ccccc1, the Potency is reported as inconclusive: 28.2 µM [inhibitor, partial curve, poor fit].
With Cc1ccc(NC(=O)N/C=C/c2ccco2)cc1 the Potency was active: 15.8 µM.
For CCn1nnc(NC(=O)c2ccc(-c3ccc(Cl)cc3)o2)n1, the Potency was inconclusive: 28.2 µM [inhibitor, partial curve, poor fit].
C/C(CC(=O)NC1CCCC1)=N\NC(=O)Cc1cccs1 was tested, and the Potency was inconclusive: 89.1 µM [inhibitor, partial curve, poor fit].
In the case of Clc1ccc(Nc2nc(NCc3ccco3)nc3nccnc23)cc1, the Potency is reported as “inactive”.
With Cc1cccc(Cn2cccc2CNS(=O)(=O)c2ccc(C)c(C)c2)c1 the Potency was “inactive”.
With OC[C@@H]1[C@@H](c2ccccc2)C(c2ccc(F)cc2)=NN1c1ccccc1 the Potency was inconclusive: 89.1 µM [inhibitor, single point].
In the case of CC(C)C[C@@H](CN=[N+]=[N-])N1CCN(Cc2ccccc2)CCC1=O, the Potency is reported as inconclusive: 79.4 µM [inhibitor, single point].
COc1ccc(-n2c(=O)c3ccccc3n(CC(=O)NCc3ccco3)c2=O)cc1 was tested, and the Potency was inconclusive: 100 µM [inhibitor, single point].
In the case of C/C(CC(=O)Nc1cc(C)ccn1)=N\NC(=O)C(=O)NC(C)C, the Potency is reported as “inactive”.
In the case of CCOc1ccc(N=Nc2c(=O)[nH]n3c(C)cc(C)nc23)cc1, the Potency is reported as inconclusive: 39.8 µM [inhibitor, full curve].
In the case of Fc1cccc(Cl)c1Cc1noc(/C=C/c2ccccc2)n1, the Potency is reported as “inactive”.
In the case of COCCCn1c(=N)c(C(=O)NCC2CCCO2)cc2c(=O)n3ccccc3nc21 (centres undefined), the Potency is reported as inconclusive: 63.1 µM [inhibitor, single point].
For COc1ccccc1NS(=O)(=O)c1ccc(C(=O)N2CCN(c3ccccn3)CC2)cc1, the Potency was inconclusive: 70.8 µM [inhibitor, partial curve].
Cc1occc1C(=O)n1nnc2ccccc21 was tested, and the Potency was inconclusive: 50.1 µM [inhibitor, partial curve, poor fit].
With Cc1cc(O)ccc1NC(=S)NC(=O)c1cncc(Br)c1 the Potency was “inactive”.
In the case of CCCCCCc1cc2cc(C(=O)NC)c(=N)oc2cc1O, the Potency is reported as inconclusive: 39.8 µM [inhibitor, partial curve].
Cc1ccc(C2=NN(C(=O)CCl)C(c3ccco3)C2)o1 (centres undefined) was tested, and the Potency was active: 22.4 µM.
For CCc1nc(SCC(=O)Nc2cc(OC)ccc2OC)c2c(C)c(C)sc2n1, the Potency was “inactive”.
CC(C)(C)N(Cc1ccccc1)C(=O)COC(=O)c1ccc([N+](=O)[O-])o1 was tested, and the Potency was inconclusive: 44.7 µM [inhibitor, partial curve].
In the case of COc1ccc(/C=N/n2cnn(Cc3ccccc3Cl)c2=S)cc1OC, the Potency is reported as “inactive”.
With O=C(/C=C/c1ccccc1)C1=C(O)C(=O)N(CCO)C1c1ccccc1[N+](=O)[O-] (centres undefined) the Potency was inconclusive: 39.8 µM [inhibitor, partial curve, poor fit].
Cc1ccc(C(=O)C2=C(O)C(=O)N(Cc3cccnc3)C2c2cccc([N+](=O)[O-])c2)o1 (centres undefined) was tested, and the Potency was inconclusive: 70.8 µM [inhibitor, single point].
Cc1ccc2cc(CN(Cc3ccco3)S(=O)(=O)c3c(C)ccc4nsnc34)c(=O)[nH]c2c1 was tested, and the Potency was active: 12.6 µM.
For CC1CCN(C2=C(NS(=O)(=O)c3ccccc3)C(=O)c3ccccc3C2=O)CC1, the Potency was “inactive”.
With O=C(N/N=C/c1sc(=O)n(-c2ccccc2)c1Cl)c1ccccc1 the Potency was inconclusive: 89.1 µM [inhibitor, single point].
With CN(CCCC1CCCC1)C(=O)CC1C(=O)NCCN1Cc1ccc(F)cc1 (centres undefined) the Potency was inconclusive: 89.1 µM [inhibitor, single point].
In the case of C=CCN1[C@@H](C(C)C)COCCS1(=O)=O, the Potency is reported as “inactive”.
With CC(C)CCN(C(=O)Nc1ccc(Cl)c(Cl)c1)C(C)c1cccs1 (centres undefined) the Potency was “inactive”.
For Cc1ccc(NCCC(=O)c2ccc(Cl)cc2)cc1C, the Potency was active: 50.1 µM.
With O=C(O)c1ccc(NC2=C/C(=N/S(=O)(=O)c3ccccc3)c3ccccc3C2=O)cc1 the Potency was inconclusive: 44.7 µM [inhibitor, partial curve].
COC(=O)c1ccccc1NC(=S)NC(=O)c1ccccc1F was tested, and the Potency was active: 25.1 µM.
With CCCCc1ccc(NC=C2C(=O)OC3(CCCCC3)OC2=O)cc1 the Potency was inconclusive: 79.4 µM [inhibitor, single point].
COc1ccc2c(c1)CCc1c(C(=O)N3CCc4ccccc4C3)noc1-2 was tested, and the Potency was inconclusive: 17.8 µM [inhibitor, full curve].
With Cc1ccc(/C=C/c2nc3ccccc3[nH]2)o1 the Potency was active: 22.4 µM.
For Cc1nc(CC(=O)N/N=C/c2ccc(OCC(=O)O)cc2)cs1, the Potency was inconclusive: 4.47 µM [inhibitor, single point].
In the case of COc1cccc(NC(=O)CCc2nnc3ccc(N4CCN(c5cccc(OC)c5)CC4)nn23)c1, the Potency is reported as “inactive”.
With Cn1ccnc1C(O)c1ccccc1 (centres undefined) the Potency was “inactive”.
For CCOC(=O)c1cc2c(c(CSc3nc4ccccc4c(=O)n3Cc3ccco3)c1)OCOC2, the Potency was inconclusive: 17.8 µM [inhibitor, single point].
For O=C(NC(=S)NNC(=O)c1ccccc1O)c1cccnc1, the Potency was inconclusive: 11.2 µM [inhibitor, partial curve, poor fit].
O=S(=O)(O)c1cccc2cccc(Nc3ccccc3)c12 was tested, and the Potency was inconclusive: 56.2 µM [inhibitor, partial curve, poor fit] and inconclusive: 70.8 µM [inhibitor, partial curve].
CC1CCCN(Cc2c(O)ccc3c2O/C(=C\c2ccco2)C3=O)C1 (centres undefined) was tested, and the Potency was inconclusive: 14.1 µM [inhibitor, partial curve].
For COc1ccc(NC(=O)CSc2nc3sc4c(c3c(=O)n2-c2ccc(OC)cc2)CCN(C)C4)cc1, the Potency was inconclusive: 39.8 µM [inhibitor, partial curve].
For COc1cccc(NC(=O)CSc2nc3c(oc4ccccc43)c(=O)[nH]2)c1, the Potency was “inactive”.
In the case of S=C(NCc1cccs1)Nc1ccccc1Cl, the Potency is reported as inconclusive: 5.01 µM [inhibitor, full curve].
With Cc1oc(C)c2c(=O)ccc3c(c12)OC(N)=C(C#N)C3c1ccc(F)cc1 (centres undefined) the Potency was inconclusive: 22.4 µM [inhibitor, single point].
With CC1=NN(c2ccccc2)C(=O)C1C(=O)C(=O)Nc1ccc(F)cc1 (centres undefined) the Potency was inconclusive: 63.1 µM [inhibitor, partial curve, poor fit].
With O=C1OC(Nc2nc(-c3ccc(F)cc3)cs2)c2ccccc21 (centres undefined) the Potency was active: 56.2 µM.
With COc1ccc(/C=C/C2=CC(C)(C)NC(=S)N2)cc1OC the Potency was inconclusive: 10 µM [inhibitor, partial curve, poor fit].
CCn1c2ccccc2c2cc(/C=C3\C=Cc4ccccc43)ccc21 was tested, and the Potency was “inactive”.
In the case of c1ccc(OCCn2c(COc3ccccc3)nc3ccccc32)cc1, the Potency is reported as “inactive”.
In the case of COc1ccc(/C=N/Nc2ncnc3sc4c(c23)CCCC4)cc1OC, the Potency is reported as “inactive”.
With Cc1ccnc2ccc3ccccc3c12 the Potency was active: 89.1 µM.
COCCN(CCOC)c1ncnc2c1c(-c1ccccc1)cn2-c1ccc(C)c(Cl)c1 was tested, and the Potency was “inactive”.
In the case of C#CCSc1nnc(CSc2nc3ccccc3s2)n1-c1ccccc1, the Potency is reported as inconclusive: 28.2 µM [inhibitor, single point].
For COc1ccccc1-n1c(-c2cn(C)nc2C)n[nH]c1=S, the Potency was inconclusive: 3.16 µM [inhibitor, partial curve, poor fit].
With CCCCCN(C(=O)NC(=O)Nc1nncs1)S(C)(=O)=O the Potency was “inactive”.
In the case of CC(C)(C)c1cc(CCC(=O)NNC(=S)NC(=O)c2ccccc2)cc(C(C)(C)C)c1O, the Potency is reported as inconclusive: 39.8 µM [inhibitor, single point].
For Cc1cc(C)c2ccc(Cl)cc2n1, the Potency was inconclusive: 70.8 µM [inhibitor, single point].
With O=C(NCc1ccco1)c1cc2c(s1)CSC2 the Potency was active: 7.94 µM.
In the case of CC(C)(C)OC(=O)N1CCC(c2c(C(=O)N3CCN(C(=O)c4ccco4)CC3)cnn2-c2ccccc2Cl)CC1, the Potency is reported as inconclusive: 20 µM [inhibitor, full curve].
COc1ccccc1/C=C/C=N/n1c(-c2ccc(Cl)cc2Cl)n[nH]c1=S was tested, and the Potency was inconclusive: 2.24 µM [inhibitor, full curve].
